# Reference: PMC7819943, “Rice protein-binding microarrays: a tool to detect cis-acting elements near promoter regions in rice”
# The list shows a part of the results.
# Biological target: T1, OsWOX13 (Oryza sativa, UniProt Q5QMM3 1-267)
# T1 sequence: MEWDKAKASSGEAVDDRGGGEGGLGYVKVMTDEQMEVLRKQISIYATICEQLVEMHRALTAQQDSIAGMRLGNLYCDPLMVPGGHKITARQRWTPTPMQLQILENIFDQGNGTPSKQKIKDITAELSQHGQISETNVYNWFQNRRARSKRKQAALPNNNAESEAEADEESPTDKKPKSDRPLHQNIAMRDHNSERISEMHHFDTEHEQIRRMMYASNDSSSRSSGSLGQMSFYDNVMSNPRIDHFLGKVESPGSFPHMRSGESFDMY
# Experiment: protein-binding microarray (RPBM); PBS, 2% BSA, 51.3 ng/ul salmon testes DNA, 50 uM zinc acetate, 200 nM TF, 25 C, 1 h; high values mean tight binding
# Conditions: protein: recombinant; tags: N-terminal polyhistidine and DsRed monomer fusion (pET32a); label: CyDye5-dUTP incorporated in the synthesized complementary strand; 3' TTTTT single-stranded linker to array surface; dsDNA, one strand shown
# Summary of the method: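 Polyhistidine-tagged DsRed fusions of transcription factors, joined at the N-terminus, were expressed in E. coli BL21-CodonPlus and isolated on Ni–NTA. They were incubated at 200 nM for 1 h at 25 °C on a custom Agilent array, double-stranded and BSA-blocked, in PBS with 2% BSA, salmon testes DNA and 50 µM zinc acetate. The binding signal is per-feature fluorescence intensity (arbitrary units) read on an Axon 4000B scanner after washing.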
row,Sequence,binding signal
1,TGCTTAATTAATTATGTGCTAATGAGGTCTTTCATTTTACCGGAGTCACCTAGTGCAG,56100 fluorescence intensity (a.u.)
2,GCTAGATTTATATCAGTTCGTAGATATTAAAATTAGGAAGCGGAGTCACCTAGTGCAG,11800 fluorescence intensity (a.u.)
3,CAAATTGGCTTCAAGATAAGGTCGTGGAAGCGTGCTACGGCGGAGTCACCTAGTGCAG,3180 fluorescence intensity (a.u.)
4,CTCAAATTGCATTCCTCTGAACTCTGAAGCAGTCACTCTGCGGAGTCACCTAGTGCAG,6170 fluorescence intensity (a.u.)
5,GCTCCAATTTGGCAAATTCTGTTTATTTTCTTTTGGGATTCGGAGTCACCTAGTGCAG,6480 fluorescence intensity (a.u.)
6,AATTAATACTTAATTAATTATGCAATAATAACTGTTTCGTCGGAGTCACCTAGTGCAG,24800 fluorescence intensity (a.u.)
7,GGGAGTAATTGAATATGCCTTTTGGGCTGCCATCTGCCCACGGAGTCACCTAGTGCAG,26800 fluorescence intensity (a.u.)
8,AAAGATTGGGGAAACCAGGCCTTACTTTCGCTTCACCGAGCGGAGTCACCTAGTGCAG,7520 fluorescence intensity (a.u.)
9,AGTAAAATGATTTGTAGTGTTAATAATAAAGAATAAATTACGGAGTCACCTAGTGCAG,10000 fluorescence intensity (a.u.)
10,ATTAACAGGTTTTACCAATAAATACTTCTTTATTTATTATCGGAGTCACCTAGTGCAG,4310 fluorescence intensity (a.u.)
11,TATGGGTAGGATTGACATTTCACATCGTCAGATCAGATCACGGAGTCACCTAGTGCAG,8760 fluorescence intensity (a.u.)
12,AACTTAATTGACGACTCTTCGGGATTAGGATCGTGGACTACGGAGTCACCTAGTGCAG,50600 fluorescence intensity (a.u.)
13,ATCTTAATTATATTGGATGACCTCCTTCAGTCATCCCGACCGGAGTCACCTAGTGCAG,31900 fluorescence intensity (a.u.)
14,AGTGAGATTTAAACTGTCCTTGCTATACGGACTAACTGTTCGGAGTCACCTAGTGCAG,3820 fluorescence intensity (a.u.)
15,TTGATTAAAATCCAGAGAAATTAATTAAGCCAAGCAAGTGCGGAGTCACCTAGTGCAG,25900 fluorescence intensity (a.u.)
16,TCCTAACATTGATGGAGTAATAGATTACTTTTAAATTAATCGGAGTCACCTAGTGCAG,4270 fluorescence intensity (a.u.)
17,CTAAATTTGTACAGGTGTATCATCAACATCCATAAACTTTCGGAGTCACCTAGTGCAG,13200 fluorescence intensity (a.u.)
18,AAAATAATTAATTTTCGGGATGTTATATATTTATAACATCCGGAGTCACCTAGTGCAG,25100 fluorescence intensity (a.u.)
19,GAGAAGATTATTGGATTATAGTAATCTGGCTTATAGATTACGGAGTCACCTAGTGCAG,4720 fluorescence intensity (a.u.)
20,AATAATAATCTAATGAAGATAAATAATCACAGTATATCATCGGAGTCACCTAGTGCAG,5510 fluorescence intensity (a.u.)
21,ACTATACAATTAATGCATGATCCCACCTATCATACACACACGGAGTCACCTAGTGCAG,4900 fluorescence intensity (a.u.)

row,Sequence,binding signal
1,TTTTGAAGATTTAATTGCAATGAATTTAATGGTGTAATCGCGGAGTCACCTAGTGCAG,17700 fluorescence intensity (a.u.)
2,GTAGTCAATTGAACCATAATACAATCAAGATATCAGATCACGGAGTCACCTAGTGCAG,4340 fluorescence intensity (a.u.)
3,CGCTACTAATTAAGCGAAGGTGTGTCACACCCTCACACGTCGGAGTCACCTAGTGCAG,6040 fluorescence intensity (a.u.)
4,AGTAATTTTCTAGTTTCTCACCATGGTTCACTAGTTCATCCGGAGTCACCTAGTGCAG,4310 fluorescence intensity (a.u.)
5,AAATGAATTAAATGAGATTTAATTTAGACCCAAATGGACACGGAGTCACCTAGTGCAG,14600 fluorescence intensity (a.u.)
6,AGCTACATTGACAGGGTGTCCTGACATTCTCTGGATAATACGGAGTCACCTAGTGCAG,5480 fluorescence intensity (a.u.)
7,AAAATAAACATATTATCATAATATATTTAATGCTAAATTTCGGAGTCACCTAGTGCAG,3740 fluorescence intensity (a.u.)
8,GTGATTTTCCTTTCTAATCATGGTTTGGCCCATTCCATGCCGGAGTCACCTAGTGCAG,6570 fluorescence intensity (a.u.)
9,TATAATTATTATTTATTTTATTTTAACTTACTTTATTATCCGGAGTCACCTAGTGCAG,4290 fluorescence intensity (a.u.)
10,GTCGATGTGATTTGGTTCTGAATCAAGGGAATTTCATAGGCGGAGTCACCTAGTGCAG,10100 fluorescence intensity (a.u.)
11,GATAATTGAGGGATTATTTTATGGATATACTAGATCTGCACGGAGTCACCTAGTGCAG,52400 fluorescence intensity (a.u.)
12,AAGAGAAGATGGAGATTGCAATCACATCTGTGGACGATGACGGAGTCACCTAGTGCAG,13100 fluorescence intensity (a.u.)
13,TCTAAGATTGTCACTTTTGAGTATTACATGCTAAGATTGTCGGAGTCACCTAGTGCAG,3520 fluorescence intensity (a.u.)
14,AATAACAAACAAATTTAACCGTAAATTACGTGTTCTTTTCCGGAGTCACCTAGTGCAG,7670 fluorescence intensity (a.u.)
15,TAATTAAAATGAGTAAATTAACAACAATTAGTATGCAGCTCGGAGTCACCTAGTGCAG,15300 fluorescence intensity (a.u.)
16,GTGGGCCCAATCATTTTCTCTCACTGACATATGGGCCCCACGGAGTCACCTAGTGCAG,4720 fluorescence intensity (a.u.)
17,ACCGTAACATCATATTGTCAAATTATGGAATAATTAGGTTCGGAGTCACCTAGTGCAG,5740 fluorescence intensity (a.u.)
18,GAAATTGAGAAAGATTTACATTATGTAATTAACTTAAATACGGAGTCACCTAGTGCAG,23600 fluorescence intensity (a.u.)
19,TTCACTCAGCTGATTGAAAGTGTTATTTTACTCATGCTTGCGGAGTCACCTAGTGCAG,39300 fluorescence intensity (a.u.)
20,ACAATTAATTAACTGAGAAAGTCTCCTAGATTAACAGATTCGGAGTCACCTAGTGCAG,26300 fluorescence intensity (a.u.)
21,AATGGACAGTAATTACTGATTATCATTGTCAACCAAATGTCGGAGTCACCTAGTGCAG,30500 fluorescence intensity (a.u.)
